Experimental data published in PubChem BioAssay AID463173 (ICCB-Longwood Screening Facility, Harvard Medical School, 2010).
Among all 52,000 compounds or so, about 1,700 (3.3%) were called active. Cut-off read from the data, not from the text of the source: active = survival mostly below about 52% (no sharp cut-off); inactive = mostly above about 56%. The list shows a part of the results.

The compounds below were run on Wild type (assay: S. aureus survival, RN4220 and DeltatarO strains – OD600, teichoic acid synthesis inhibitors, primary screen (AID 463173)). Details: S. aureus RN4220 wild type/DeltatarO growth, OD600, 18 h, active compounds read low, screened at 18.75 µg/mL (by protocol).

Row | Compound | survival
1 | Cc1ccc(S(=O)(=O)c2cn(Cc3ccccc3)c3cc(N4CCCCC4)c(F)cc3c2=O)cc1 | inactive: 65%
2 | CC(C)CCOc1ccc(Cn2c(=O)oc3ccccc32)cc1 | inactive: 121%
3 | COc1ccc(-c2noc(-c3ccc(N4CCOCC4)c([N+](=O)[O-])c3)n2)cc1 | inactive: 83%
4 | CCc1ccc(CNC(=O)C2COc3ccc(OC)cc3C2)cc1 (centres undefined) | inactive: 93%
5 | CN(Cc1ccccc1)C(=O)CSc1nnc(-c2cccc(Cl)c2)o1 | inactive: 94%
6 | CCOC(=O)c1c(C)sc(-c2c(-c3ccccc3)[nH]c3[nH]c(=O)[nH]c(=O)c23)c1O | inactive: 104%
7 | CCC(=O)n1nc(-c2ccccc2)nc1N | inactive: 113%
8 | CC1=C(C(=O)Nc2ccccc2C)C(c2cccs2)n2nc(SCc3ccccc3)nc2N1 (centres undefined) | inactive: 99%
9 | CCc1ccc(S(=O)(=O)NCc2ccc3c(c2)CCN3C(=O)c2ccc(C)cc2)cc1 | inactive: 78%
10 | CC(C(=O)NCC1(c2ccccc2)CCOCC1)N1CCCCC1 (centres undefined) | inactive: 103%
11 | CCc1ccc(-n2nc(CO)c(C(=O)NCCOC)n2)cc1 | inactive: 84%
12 | O=C(Cn1ncc2c(Cl)cccc21)NCc1cccc(Cl)c1 | inactive: 116%
13 | CC(C)(C)C(=O)Nc1ccccc1C(=O)Nc1nccs1 | inactive: 100%
14 | CN(C(=O)CC(=O)Nc1ccc2nc3n(c(=O)c2c1)CCCCC3)c1ccccc1F | inactive: 90%
15 | Cc1scc(CN2CCN(c3ccccc3F)CC2)c1C | inactive: 92%
16 | COc1ccc(OC)c(S(=O)(=O)N2CCC(n3c(C)nc4cccnc43)CC2)c1 | inactive: 45%
17 | CCOc1ccc(NC(=O)Cn2c(=O)n(Cc3ccc4c(c3)OCO4)c(=O)c3ccc(C(=O)NC4CCCCC4)cc32)cc1 | inactive: 90%
18 | Cc1ccc(CNS(=O)(=O)c2ccc(C(=O)N(C)C)s2)cc1 | active: -6%
19 | Cc1ccc(CN(C(=O)COc2ccccc2Cl)c2ccccn2)o1 | inactive: 90%
20 | COc1ccc(Nc2c3c(nc4ccccc24)CCC3)cc1Cl | inactive: 72%
21 | Cc1cccc(NC(=O)Cn2c(=O)n(Cc3ccc4c(c3)OCO4)c(=O)c3oc4ccccc4c32)c1C | inactive: 88%
22 | Fc1ccc(CNc2ccc(N3CCCC3)cc2)cc1 | inactive: 103%
23 | COc1ccc(OC)c(CNC(=O)Nc2cn(CC(C)C)c(=O)c3ccccc23)c1 | inactive: 66%

Row | Compound | survival
24 | CCC(=O)N1c2ccc(S(=O)(=O)CCC(=O)NCc3ccccc3OC)cc2CC1C (centres undefined) | inactive: 87%
25 | CC(C)(C)C1CCc2c(sc(NC(=O)C3c4ccccc4Oc4ccccc43)c2C(N)=O)C1 (centres undefined) | inactive: 91%
26 | CCn1cc(S(=O)(=O)c2cc(C)cc(C)c2)c(=O)c2cc(F)c(N3CCCCC3)cc21 | inactive: 82%
27 | CC1CCCCN1Cc1c(O)ccc2c(=O)c(-c3ccccc3Cl)c(C(F)(F)F)oc12 (centres undefined) | inactive: 75%
28 | CCCCn1c(CNC(=O)C23CC4CC(CC(C4)C2)C3)nnc1SCC(=O)Nc1ccc(C)cc1 | inactive: 42%
29 | COCCSc1nc2c([nH]c3ccccc32)c(=O)n1-c1ccc(OC)c(OC)c1 | inactive: 128%
30 | Cc1ccc(CNC(=O)Nc2cc(C(=O)NCc3cccc(F)c3)ccc2N2CCCC2)cc1 | inactive: 128%
31 | COC(=O)c1nnn(CC(=O)NC(=O)Nc2ccc(F)cc2)c1C(=O)OC | inactive: 70%
32 | CC(=O)N1CCc2cc(Br)cc(S(=O)(=O)N3CCC(C(=O)Nc4cccc(C)c4C)CC3)c21 | inactive: 98%
33 | O=C(Nc1ccc(S(=O)(=O)N2CCC(c3nc4ccccc4s3)CC2)cc1)c1ccccc1 | inactive: 118%
34 | O=C(CSc1ccccn1)Nc1cccc(F)c1 | inactive: 118%
35 | COc1ccccc1NC(=O)Cn1c(CN2CCCCC2)nc2ccccc2c1=O | inactive: 110%
36 | CCC(C(=O)OC)n1c(-c2ccccc2)nc2ccccc2c1=O (centres undefined) | inactive: 98%
37 | Cc1ccc(NC(=O)CNCCCN2CCOCC2)cc1Br | inactive: 104%
38 | Cc1ccc(C2CC(=O)Nc3cc4c(cc32)OCCO4)cc1Br (centres undefined) | inactive: 86%
39 | CCc1ccc(-c2nnn(CC#N)n2)cc1 | inactive: 99%
40 | Fc1ccccc1-c1nc(N2CCN(c3cccc(Cl)c3)CC2)c2ccccc2n1 | inactive: 58%
41 | CCOc1ccc(CCNC(=O)c2cc(=O)[nH]c3ccc(S(=O)(=O)N4CCCCC4C)cc23)cc1OCC (centres undefined) | inactive: 75%
42 | CCC(Sc1nc(N)cc(=O)[nH]1)C(=O)NC(C)c1ccccc1 (centres undefined) | inactive: 103%
43 | Cc1ccc(-c2noc(CCC(=O)N(C)c3ccccc3F)n2)cc1 | active: 4%
44 | COCCNC(=O)Cn1ccc2cc(S(=O)(=O)N3CCCCCC3)ccc21 | inactive: 80%
45 | CC(C)c1ccccc1C=NCC(=O)O | inactive: 103%
46 | COc1ccc(CNC(=O)CCc2c(C)nc3c(c(C)nn3-c3ccccc3)c2C)cc1 | inactive: 103%

Row | Compound | survival
47 | CCOC(=O)c1c(C)n(-c2ccc(OC)cc2)c2ccc(OC(=O)COc3ccccc3)cc12 | inactive: 76%
48 | O=C(Cn1nnnc1-c1ccccc1F)Nc1ccc(OC(F)(F)F)cc1 | inactive: 88%
49 | Cc1ccc(-n2ncc3c(Nc4cccc(Cl)c4)ncnc32)c(C)c1 | inactive: 82%
50 | CCN(CC)c1cc(C)c2cc(NC(=O)/C=C/c3cc(OC)c(OC)c(OC)c3)ccc2n1 | inactive: 96%
51 | CC(C)c1nnc(N2C(=O)c3oc4ccccc4c(=O)c3C2c2ccccc2F)s1 (centres undefined) | inactive: 75%
52 | COc1cc(NC(=O)C2=CC(c3ccc(F)cc3)=NS(=O)(=O)N2C)cc(OC)c1OC | inactive: 82%
53 | CCc1ccc(CNC(=O)CCc2c(C)nn(-c3ccc(N4CCCC4)nn3)c2C)cc1 | inactive: 68%
54 | O=C(CSc1nccn1Cc1ccc(F)cc1)Nc1nc2ccccc2s1 | inactive: 82%
55 | CCN(Cc1ccccc1)C(=O)C1CCN(S(=O)(=O)c2ccc3c(c2)CCCN3C(C)=O)CC1 | inactive: 69%
56 | O=C(Cn1ncc2c3ccccc3n(Cc3ccccc3F)c2c1=O)NCc1ccccc1Cl | inactive: 94%
57 | Cc1cc2c(cc1S(=O)(=O)Nc1cccc(C#N)c1)OCC(=O)N2 | inactive: 74%
58 | CNC(=O)CC(=O)NC | inactive: 116%
59 | Cc1cccc(CC(=O)N2CC(=O)Nc3ccc(Br)cc3C2c2ccc(F)cc2)c1 (centres undefined) | inactive: 62%
60 | CCc1cccc(-n2nnc(-c3nsc(NC(=O)c4cccc(OC)c4)n3)c2C)c1 | inactive: 69%
61 | COc1ccc(CNC(=O)CN(C)S(=O)(=O)c2ccc3nc(C)sc3c2)cc1 | inactive: 85%
62 | COc1cccc(C(=O)Nc2ccccc2C(=O)OCc2cc(=O)n3c4c(sc3n2)CCCC4)c1 | inactive: 65%
63 | O=C(c1cccnc1)N1CCN(CCN2C(=O)C3C4C=CC(C4)C3C2=O)CC1 (centres undefined) | inactive: 108%
64 | CC(C)N(C(=O)CSc1cn(CC(=O)N2CCCCCC2)c2ccccc12)C(C)C | inactive: 88%
65 | Cc1coc2c(C)c3oc(=O)c(CCC(=O)NCCc4ccccc4F)c(C)c3cc12 | inactive: 81%
66 | CCOC(=O)c1ccc(NC(=O)Cn2c(=O)cc(C)c3c(C)nn(-c4ccc(CC)cc4)c32)cc1 | inactive: 70%
67 | N#Cc1ccc(-c2cccs2)nc1SCc1ccc(Br)cc1 | inactive: 67%
68 | Nc1nc2ccccc2n1C(=O)Cc1ccccc1 | inactive: 111%
69 | COc1ccc(-n2nc(C(=O)N3CCCCC3C)c3c4ccccc4n(C)c3c2=O)cc1Cl (centres undefined) | inactive: 82%

Row | Compound | survival
70 | COc1ccc(Br)cc1S(=O)(=O)Nc1cc(-c2cn3ccccc3n2)ccc1C | inactive: 63%
71 | CCOc1ccc(CCNC(=O)c2cn(-c3ccc(OC)cc3)c(=O)c3ccccc23)cc1OCC | inactive: 119%
72 | Cc1ccc(C2C=C(c3ccccc3)Nc3nc(NS(=O)(=O)c4ccccc4)nn32)cc1 (centres undefined) | inactive: 83%
73 | COc1cccc(/C=C/c2nc(C#N)c(N3CCC(C(N)=O)CC3)o2)c1 | inactive: 84%
74 | COc1ccccc1Nc1sc(C(=O)c2ccc(F)cc2)c(N)c1S(=O)(=O)c1ccc(C)cc1 | inactive: 66%
75 | COc1ccc(NC(=O)Cn2c(=O)n(CCC(=O)NCC3CCCO3)c(=O)c3cc(OC)c(OC)cc32)cc1 (centres undefined) | inactive: 84%
76 | CN(Cc1ccccc1)C(=O)c1ccc(CSc2nc3cccnc3n2Cc2ccccc2F)cc1 | inactive: 79%
77 | CCc1ccc(-n2nc(C)c3c(C(=O)N4CCN(c5ccccc5)CC4)cc(C)nc32)cc1 | inactive: 87%
78 | COc1ccc(-c2noc(-c3ccc(N4CCCC4)c([N+](=O)[O-])c3)n2)cc1OC | inactive: 81%
79 | CCOc1cc(C2NC(=O)c3c(sc4c3CCN(C)C4)N2)ccc1OC(=O)c1ccc(Br)cc1 (centres undefined) | inactive: 71%
80 | CCOc1ccc(CNC(=O)C2CCCN(c3nnc(C)c4c(C)n(-c5ccccc5)nc34)C2)cc1 (centres undefined) | inactive: 59%
81 | CC1C(C(=O)Nc2ccccc2)CCCC1(C)C(=O)O (centres undefined) | inactive: 116%
82 | CNC(=O)CSc1nnc(-c2ccco2)n1CC1CCCO1 (centres undefined) | inactive: 100%
83 | CCOc1ccc(NC(=O)Cn2cnc3sc(C)c(S(=O)(=O)N4CCN(c5ccccc5OC)CC4)c3c2=O)cc1 | inactive: 80%
84 | COc1ccc(NC(=O)c2ccco2)cc1NC(=O)C(C)(C)Oc1ccc(Cl)cc1 | inactive: 28%
85 | O=C1CC2CCCC(CN1)N2CC(=O)NCc1ccco1 (centres undefined) | inactive: 104%
86 | Cc1nn2c(C)c(C(=O)NC(C)c3ccccc3)cnc2c1-c1ccc(F)cc1 (centres undefined) | inactive: 121%
87 | O=C(c1ccc(Cl)cc1)C1CCN(C(=O)N2CCOCC2)CC1 | inactive: 103%
88 | Cc1cccc(C)c1-n1ncc(C(=O)O)c1C1CCN(C(=O)OC(C)(C)C)CC1 | inactive: 80%
89 | COc1ccc(C)cc1NC(=O)c1cc2c(=O)n3cccc(C)c3nc2s1 | inactive: 91%
